The values below come from article PMC9600267, “The Antibacterial Type VII Secretion System of Bacillus subtilis: Structure and Interactions of the Pseudokinase YukC/EssB” (mBio, 2022).

Common to all, as to assay: two-hybrid; bacterial two-hybrid (BACTH) in E. coli BTH101; T25 (pKT25/pKNT25) and T18 (pUT18/pUT18C) fusions; spots on LB with X-Gal and IPTG, 25°C, imaged after 48 h
Experiment [1] has as its target T1, YueB (full length), bacterial two-hybrid fusion (Bacillus subtilis 168) (UniProt O32101).
T1 sequence: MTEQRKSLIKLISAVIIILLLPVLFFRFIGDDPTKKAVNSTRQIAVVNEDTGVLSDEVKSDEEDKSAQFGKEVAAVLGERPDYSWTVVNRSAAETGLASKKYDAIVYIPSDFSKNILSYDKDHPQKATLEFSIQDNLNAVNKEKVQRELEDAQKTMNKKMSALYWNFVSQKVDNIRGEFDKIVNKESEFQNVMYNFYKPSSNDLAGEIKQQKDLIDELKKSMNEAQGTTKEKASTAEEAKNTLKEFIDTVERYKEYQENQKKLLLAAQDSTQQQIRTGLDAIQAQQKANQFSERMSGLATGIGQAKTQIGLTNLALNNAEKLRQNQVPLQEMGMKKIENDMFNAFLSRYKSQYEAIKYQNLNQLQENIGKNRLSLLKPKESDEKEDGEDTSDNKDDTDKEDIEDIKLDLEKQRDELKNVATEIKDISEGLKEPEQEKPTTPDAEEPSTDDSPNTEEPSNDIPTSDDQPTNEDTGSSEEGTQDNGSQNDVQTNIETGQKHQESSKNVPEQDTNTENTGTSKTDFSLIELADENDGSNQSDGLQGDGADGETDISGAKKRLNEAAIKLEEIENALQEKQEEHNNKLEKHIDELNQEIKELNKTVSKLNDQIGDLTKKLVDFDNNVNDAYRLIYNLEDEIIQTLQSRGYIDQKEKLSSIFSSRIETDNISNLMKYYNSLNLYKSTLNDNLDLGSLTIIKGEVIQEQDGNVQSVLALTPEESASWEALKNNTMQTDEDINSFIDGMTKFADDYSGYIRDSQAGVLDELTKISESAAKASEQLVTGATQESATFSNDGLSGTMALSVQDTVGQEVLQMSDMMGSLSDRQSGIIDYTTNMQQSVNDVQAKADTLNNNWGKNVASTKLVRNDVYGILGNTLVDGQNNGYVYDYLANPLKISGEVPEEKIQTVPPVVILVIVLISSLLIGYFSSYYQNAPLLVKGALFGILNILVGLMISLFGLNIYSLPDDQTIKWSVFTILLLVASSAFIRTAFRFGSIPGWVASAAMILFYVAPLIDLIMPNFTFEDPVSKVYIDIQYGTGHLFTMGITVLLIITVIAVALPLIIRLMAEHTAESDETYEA

Experiment [2] concerns the target T2, YueC, bacterial two-hybrid fusion (Bacillus subtilis 168) (UniProt O32100).
T2 sequence: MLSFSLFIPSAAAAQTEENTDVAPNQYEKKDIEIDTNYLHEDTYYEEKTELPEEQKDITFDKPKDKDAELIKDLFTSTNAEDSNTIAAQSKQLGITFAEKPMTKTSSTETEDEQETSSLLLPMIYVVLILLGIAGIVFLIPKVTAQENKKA

The target of experiment [3] is T3, YukE, bacterial two-hybrid fusion (Bacillus subtilis 168) (UniProt C0SP85).
T3 sequence: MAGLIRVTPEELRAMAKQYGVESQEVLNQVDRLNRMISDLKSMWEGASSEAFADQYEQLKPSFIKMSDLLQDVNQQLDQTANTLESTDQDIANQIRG

The target of experiment [4] is T4, YukB, bacterial two-hybrid fusion (Bacillus subtilis 168) (UniProt C0SPA7).
T4 sequence: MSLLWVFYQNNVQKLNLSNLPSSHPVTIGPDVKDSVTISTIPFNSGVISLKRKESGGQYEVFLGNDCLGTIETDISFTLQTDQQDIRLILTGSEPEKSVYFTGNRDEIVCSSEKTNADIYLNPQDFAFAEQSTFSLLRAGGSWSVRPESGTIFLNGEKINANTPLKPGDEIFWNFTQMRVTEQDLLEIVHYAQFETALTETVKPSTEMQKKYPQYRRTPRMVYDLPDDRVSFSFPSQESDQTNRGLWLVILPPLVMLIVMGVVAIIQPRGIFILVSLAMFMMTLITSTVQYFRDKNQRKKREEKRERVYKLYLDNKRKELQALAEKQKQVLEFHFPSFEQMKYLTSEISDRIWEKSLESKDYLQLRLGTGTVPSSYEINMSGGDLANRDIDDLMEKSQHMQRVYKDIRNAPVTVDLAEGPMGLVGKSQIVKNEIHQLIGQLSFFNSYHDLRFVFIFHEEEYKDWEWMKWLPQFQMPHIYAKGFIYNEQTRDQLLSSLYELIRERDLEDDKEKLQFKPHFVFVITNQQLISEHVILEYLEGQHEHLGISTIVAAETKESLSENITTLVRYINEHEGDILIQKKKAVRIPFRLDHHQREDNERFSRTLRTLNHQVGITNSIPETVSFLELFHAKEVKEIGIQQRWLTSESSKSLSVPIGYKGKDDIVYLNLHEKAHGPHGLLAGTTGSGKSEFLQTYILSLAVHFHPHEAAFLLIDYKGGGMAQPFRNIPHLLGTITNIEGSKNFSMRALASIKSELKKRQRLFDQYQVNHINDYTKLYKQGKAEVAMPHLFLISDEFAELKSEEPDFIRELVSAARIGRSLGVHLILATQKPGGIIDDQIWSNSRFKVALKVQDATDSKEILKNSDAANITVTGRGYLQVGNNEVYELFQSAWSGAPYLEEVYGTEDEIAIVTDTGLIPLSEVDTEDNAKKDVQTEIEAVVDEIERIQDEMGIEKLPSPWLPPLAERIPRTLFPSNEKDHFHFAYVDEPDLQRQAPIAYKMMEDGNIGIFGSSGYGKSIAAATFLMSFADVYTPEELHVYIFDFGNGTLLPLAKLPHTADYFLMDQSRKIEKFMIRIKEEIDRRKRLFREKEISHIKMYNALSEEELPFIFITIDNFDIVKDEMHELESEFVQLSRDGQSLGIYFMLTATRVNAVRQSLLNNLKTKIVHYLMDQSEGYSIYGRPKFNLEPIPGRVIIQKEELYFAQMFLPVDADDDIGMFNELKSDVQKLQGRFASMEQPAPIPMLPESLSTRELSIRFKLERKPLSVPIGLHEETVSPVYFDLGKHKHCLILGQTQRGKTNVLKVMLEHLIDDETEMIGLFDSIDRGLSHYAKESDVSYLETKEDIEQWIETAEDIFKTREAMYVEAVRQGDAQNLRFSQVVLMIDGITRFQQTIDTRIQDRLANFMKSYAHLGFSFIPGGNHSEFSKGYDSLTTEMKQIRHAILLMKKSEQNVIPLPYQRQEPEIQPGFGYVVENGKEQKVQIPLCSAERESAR

Results are given in words; binding and its absence hold for the method and conditions named. Some binding calls cover weakened binding; strength is not graded here. Sequences can lack the tags named with a protein.

B1: YueB (full length), bacterial two-hybrid fusion (protein, UniProt O32101 1-1076)
chain: MTEQRKSLIKLISAVIIILLLPVLFFRFIGDDPTKKAVNSTRQIAVVNEDTGVLSDEVKSDEEDKSAQFGKEVAAVLGERPDYSWTVVNRSAAETGLASKKYDAIVYIPSDFSKNILSYDKDHPQKATLEFSIQDNLNAVNKEKVQRELEDAQKTMNKKMSALYWNFVSQKVDNIRGEFDKIVNKESEFQNVMYNFYKPSSNDLAGEIKQQKDLIDELKKSMNEAQGTTKEKASTAEEAKNTLKEFIDTVERYKEYQENQKKLLLAAQDSTQQQIRTGLDAIQAQQKANQFSERMSGLATGIGQAKTQIGLTNLALNNAEKLRQNQVPLQEMGMKKIENDMFNAFLSRYKSQYEAIKYQNLNQLQENIGKNRLSLLKPKESDEKEDGEDTSDNKDDTDKEDIEDIKLDLEKQRDELKNVATEIKDISEGLKEPEQEKPTTPDAEEPSTDDSPNTEEPSNDIPTSDDQPTNEDTGSSEEGTQDNGSQNDVQTNIETGQKHQESSKNVPEQDTNTENTGTSKTDFSLIELADENDGSNQSDGLQGDGADGETDISGAKKRLNEAAIKLEEIENALQEKQEEHNNKLEKHIDELNQEIKELNKTVSKLNDQIGDLTKKLVDFDNNVNDAYRLIYNLEDEIIQTLQSRGYIDQKEKLSSIFSSRIETDNISNLMKYYNSLNLYKSTLNDNLDLGSLTIIKGEVIQEQDGNVQSVLALTPEESASWEALKNNTMQTDEDINSFIDGMTKFADDYSGYIRDSQAGVLDELTKISESAAKASEQLVTGATQESATFSNDGLSGTMALSVQDTVGQEVLQMSDMMGSLSDRQSGIIDYTTNMQQSVNDVQAKADTLNNNWGKNVASTKLVRNDVYGILGNTLVDGQNNGYVYDYLANPLKISGEVPEEKIQTVPPVVILVIVLISSLLIGYFSSYYQNAPLLVKGALFGILNILVGLMISLFGLNIYSLPDDQTIKWSVFTILLLVASSAFIRTAFRFGSIPGWVASAAMILFYVAPLIDLIMPNFTFEDPVSKVYIDIQYGTGHLFTMGITVLLIITVIAVALPLIIRLMAEHTAESDETYEA
Turning to B1, the binding result in experiment [1] is recorded as “binds”.

B2: YueC, bacterial two-hybrid fusion (protein, UniProt O32100 1-151)
chain: MLSFSLFIPSAAAAQTEENTDVAPNQYEKKDIEIDTNYLHEDTYYEEKTELPEEQKDITFDKPKDKDAELIKDLFTSTNAEDSNTIAAQSKQLGITFAEKPMTKTSSTETEDEQETSSLLLPMIYVVLILLGIAGIVFLIPKVTAQENKKA
As to B2, in experiment [2], the binding result is listed as “no binding”.

B3: YukE, bacterial two-hybrid fusion (protein, UniProt C0SP85 1-97)
chain: MAGLIRVTPEELRAMAKQYGVESQEVLNQVDRLNRMISDLKSMWEGASSEAFADQYEQLKPSFIKMSDLLQDVNQQLDQTANTLESTDQDIANQIRG
B3: the binding entry in experiment [3] is “binds”.

B4: YukB, bacterial two-hybrid fusion (protein, UniProt C0SPA7 1-1495)
chain: MSLLWVFYQNNVQKLNLSNLPSSHPVTIGPDVKDSVTISTIPFNSGVISLKRKESGGQYEVFLGNDCLGTIETDISFTLQTDQQDIRLILTGSEPEKSVYFTGNRDEIVCSSEKTNADIYLNPQDFAFAEQSTFSLLRAGGSWSVRPESGTIFLNGEKINANTPLKPGDEIFWNFTQMRVTEQDLLEIVHYAQFETALTETVKPSTEMQKKYPQYRRTPRMVYDLPDDRVSFSFPSQESDQTNRGLWLVILPPLVMLIVMGVVAIIQPRGIFILVSLAMFMMTLITSTVQYFRDKNQRKKREEKRERVYKLYLDNKRKELQALAEKQKQVLEFHFPSFEQMKYLTSEISDRIWEKSLESKDYLQLRLGTGTVPSSYEINMSGGDLANRDIDDLMEKSQHMQRVYKDIRNAPVTVDLAEGPMGLVGKSQIVKNEIHQLIGQLSFFNSYHDLRFVFIFHEEEYKDWEWMKWLPQFQMPHIYAKGFIYNEQTRDQLLSSLYELIRERDLEDDKEKLQFKPHFVFVITNQQLISEHVILEYLEGQHEHLGISTIVAAETKESLSENITTLVRYINEHEGDILIQKKKAVRIPFRLDHHQREDNERFSRTLRTLNHQVGITNSIPETVSFLELFHAKEVKEIGIQQRWLTSESSKSLSVPIGYKGKDDIVYLNLHEKAHGPHGLLAGTTGSGKSEFLQTYILSLAVHFHPHEAAFLLIDYKGGGMAQPFRNIPHLLGTITNIEGSKNFSMRALASIKSELKKRQRLFDQYQVNHINDYTKLYKQGKAEVAMPHLFLISDEFAELKSEEPDFIRELVSAARIGRSLGVHLILATQKPGGIIDDQIWSNSRFKVALKVQDATDSKEILKNSDAANITVTGRGYLQVGNNEVYELFQSAWSGAPYLEEVYGTEDEIAIVTDTGLIPLSEVDTEDNAKKDVQTEIEAVVDEIERIQDEMGIEKLPSPWLPPLAERIPRTLFPSNEKDHFHFAYVDEPDLQRQAPIAYKMMEDGNIGIFGSSGYGKSIAAATFLMSFADVYTPEELHVYIFDFGNGTLLPLAKLPHTADYFLMDQSRKIEKFMIRIKEEIDRRKRLFREKEISHIKMYNALSEEELPFIFITIDNFDIVKDEMHELESEFVQLSRDGQSLGIYFMLTATRVNAVRQSLLNNLKTKIVHYLMDQSEGYSIYGRPKFNLEPIPGRVIIQKEELYFAQMFLPVDADDDIGMFNELKSDVQKLQGRFASMEQPAPIPMLPESLSTRELSIRFKLERKPLSVPIGLHEETVSPVYFDLGKHKHCLILGQTQRGKTNVLKVMLEHLIDDETEMIGLFDSIDRGLSHYAKESDVSYLETKEDIEQWIETAEDIFKTREAMYVEAVRQGDAQNLRFSQVVLMIDGITRFQQTIDTRIQDRLANFMKSYAHLGFSFIPGGNHSEFSKGYDSLTTEMKQIRHAILLMKKSEQNVIPLPYQRQEPEIQPGFGYVVENGKEQKVQIPLCSAERESAR
Consider B4, for which the binding result in experiment [1] and in experiment [4] was “binds” in each case.
